± gives the standard deviation of the averaged measurements. Over roughly 33,000 sequences, “E-score (dimensionless, -0.5 to 0.5)” has its median near -0.049; the highest 2% begin near 0.37. The list shows a part of the results.
Test system: T1, PmTbr T-box DNA-binding domain (GST fusion)
T1 sequence: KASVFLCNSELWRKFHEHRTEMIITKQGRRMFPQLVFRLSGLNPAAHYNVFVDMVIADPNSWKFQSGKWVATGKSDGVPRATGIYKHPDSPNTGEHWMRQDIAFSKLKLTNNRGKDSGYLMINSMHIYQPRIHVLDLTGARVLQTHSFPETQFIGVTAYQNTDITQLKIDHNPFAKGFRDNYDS
Test: PBM E-score of 8-mer (E-score (dimensionless, -0.5 to 0.5)); Tbr is Tbrain of the sea star Patiria miniata (Pm) or the sea urchin Strongylocentrotus purpuratus (Sp); higher = stronger binding preference; most listed sequences are background and not binding sites
Conditions: the construct has about 5 more residues each side
Outline: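 Using the Universal PBM Analysis Suite, every ungapped 8-mer received an enrichment E-score averaged over duplicate arrays. Probe intensities came from double-stranded Universal Agilent oligonucleotide arrays incubated with 200 nM GST-fused Tbr T-box DNA-binding domain in PBS (pH 7.5). That protein was expressed in BL21 E. coli at 20 °C and purified by glutathione affinity chromatography.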

Sequence	PBM E-score of 8-mer
CTTCCACC	-0.0494 ± 0.032
CCGGTACG	-0.087 ± 0.038
AGGAGTAA	-0.025 ± 0.055
AAGTTGGC	0.154 ± 0.029
ATCAGGGA	-0.235 ± 0.0044
GCTGTTCC	-0.03 ± 0.039
ATGCTATG	0.0116 ± 0.0066
CCGGAGAA	-0.00469 ± 0.1
ATCTAGTA	-0.0582 ± 0.021
GTCCGTAA	-0.254 ± 0.076
GCCATCCA	-0.0707 ± 0.014
CGTGTGAC	0.4054 ± 0.0011
CCTAGGCC	-0.0558 ± 0.021
AGATTCAG	-0.217 ± 0.043
CAAAGGGG	-0.0294 ± 0.05
ACTCTCCT	-0.262 ± 0.035
AGCCAGCG	-0.149 ± 0.095
CGGAGTGA	0.112 ± 0.029
ACTCTCTA	-0.066 ± 0.05
AATGTCAG	0.0135 ± 0.012
CAAAGATC	-0.1 ± 0.012
GCCGACGC	0.0966 ± 0.04
ACCGGCAA	0.0805 ± 0.038
GACGACAC	0.305 ± 0.034
AACAGCCG	-0.116 ± 0.026

Sequence	PBM E-score of 8-mer
CAGATGAA	-0.144 ± 0.096
ACAGCATA	-0.0777 ± 0.051
AGTTTACC	-0.0737 ± 0.072
GCAGCGCA	-0.177 ± 0.044
CTTTATCA	0.182 ± 0.082
CACAACTC	0.202 ± 0.012
ATGCATCA	0.12 ± 0.049
AAACGCCC	-0.202 ± 0.037
GCATCTCA	0.0545 ± 0.013
CAAACAAG	-0.0714 ± 0.069
ATACAAGG	0.0196 ± 0.015
GGAGACAC	0.142 ± 0.084
CACTATAC	0.132 ± 0.073
AATGTGTA	0.226 ± 0.029
AGGGACGG	-0.213 ± 0.022
CGCCGCGC	0.1696 ± 0.00036
GAGTGAAC	0.133 ± 0.048
TATCGCAA	0.143 ± 0.067
CAGAAGCC	-0.2782 ± 0.0009
ACTTAACA	0.327 ± 0.036
AGCTCACG	0.124 ± 0.037
ACAAAGCA	0.0625 ± 0.013
CGCTACAC	0.129 ± 0.045
ATACCTGC	0.0129 ± 0.047
CGAGACAA	-0.054 ± 0.007

Sequence	PBM E-score of 8-mer
ATCGTAAT	-0.0745 ± 0.038
AGCTAATG	-0.129 ± 0.0072
CCATTCAA	-0.184 ± 0.041
ATGTTTTC	-0.0701 ± 0.046
ATCAAATA	-0.114 ± 0.028
GATGTGCA	0.107 ± 0.021
CAAGAACG	-0.299 ± 0.037
ATGGTTGC	-0.167 ± 0.062
ATGACGTA	-0.1684 ± 0.00013
ATCCTAAT	-0.0653 ± 0.0047
ACCCAGCA	-0.0317 ± 0.034
ATCATCTA	0.0571 ± 0.026
CATTGGCG	0.167 ± 0.027
ATAGTGAC	0.17 ± 0.015
CCTTGTTC	-0.00419 ± 0.065
CACCCAGA	0.0663 ± 0.087
GCAGCGAA	0.0151 ± 0.0073
AGGAACAG	-0.0629 ± 0.0026
CTACAGAC	0.0843 ± 0.022
ATTCTAGG	-0.0821 ± 0.035
ATCTGAGG	-0.0294 ± 0.079
CGACCCAA	0.0392 ± 0.012
GAATTGTC	0.184 ± 0.0043
CTCCCGCC	0.0402 ± 0.087
AGCAGAGG	-0.202 ± 0.0099

Sequence	PBM E-score of 8-mer
ACGTTCTC	0.0059 ± 0.18
CGCTTCAC	0.188 ± 0.016
GGGGAACA	-0.156 ± 0.032
ATACCCGA	-0.117 ± 0.044
ACTCTTGC	-0.0506 ± 0.044
AGAGTAGG	-0.204 ± 0.032
AGGGTCCA	-0.278 ± 0.013
AGTCAAAT	-0.189 ± 0.044
ATGATAGG	-0.00677 ± 0.042
GCATACGC	-0.152 ± 0.036
AGCAGTAA	-0.102 ± 0.021
GTGGTTTA	-0.108 ± 0.044
CAGAGCGA	-0.17 ± 0.12
TTATTCAA	-0.199 ± 0.061
AGGGGCGA	0.0686 ± 0.035
AACCCTCG	-0.126 ± 0.02
CCTCGCAA	0.118 ± 0.0037
GCGCGCCA	0.133 ± 0.02
ACATCTAA	-0.044 ± 0.015
CTCCGGAG	-0.167 ± 0.095
GACTTAGA	-0.0924 ± 0.041
ACATTGAG	-0.142 ± 0.027
TTACATAA	-0.104 ± 0.022
CACCCTTC	0.259 ± 0.01
TCCGCGGA	0.08 ± 0.13

Sequence	PBM E-score of 8-mer
CAACAAAA	0.0165 ± 0.026
AGGAAACG	-0.0501 ± 0.002
TGAGGCAA	-0.118 ± 0.034
CCCGTAAC	0.0424 ± 0.058
ACTCTATG	-0.105 ± 0.027
ACGGTCAG	-0.0199 ± 0.045
ACTGTGAA	0.378 ± 0.0086
CACTTGCA	0.349 ± 0.0093
CAAGGCGA	0.15 ± 0.035
GGTGAGAA	0.4754 ± 0.0012
ACTCGATC	-0.0969 ± 0.064
CAGTTACG	-0.00341 ± 0.027
TCCAGAAA	-0.201 ± 0.045
ATGCTATC	0.00936 ± 0.033
CTAAGTGA	0.225 ± 0.032
CTCCTCGC	0.149 ± 0.011
ATATGCGG	-0.0966 ± 0.012
AGCCGCTC	-0.16 ± 0.073
ACGGAGTG	0.164 ± 0.036
AGCGCCAT	0.113 ± 0.088
CAAGTACC	-0.127 ± 0.046
AGGTCGGC	-0.0474 ± 0.007
AGATCCCT	-0.0899 ± 0.03
AACTCTAG	-0.105 ± 0.007
AGCCGCTG	0.0265 ± 0.033

Sequence	PBM E-score of 8-mer
CACCTTCA	0.436 ± 0.0071
ACCCGTGA	0.242 ± 0.0062
ACCACACC	0.361 ± 0.023
CTGCTAAC	0.318 ± 0.029
GGGACCCC	-0.248 ± 0.055
AAGGAGGT	0.246 ± 0.0053
CTTCCCTA	-0.216 ± 0.022
ACTCCAAA	0.0455 ± 0.096
ACCATCCC	-0.0384 ± 0.0051
AGTTGCCA	0.2348 ± 0.001
CCTGTCGA	0.181 ± 0.042
CTGGTAAC	0.00756 ± 0.011
AAAATGAG	-0.1456 ± 0.00079
AATGACGG	-0.0819 ± 0.0024
CACAGGGG	0.0438 ± 0.049
CACTGTGC	0.08 ± 0.071
GGGGAAGA	-0.0502 ± 0.052
ATCGCTAG	0.157 ± 0.003
TGCGAACA	0.396 ± 0.0075
AAGACAGT	0.00362 ± 0.0084
AGTAGAAG	-0.0132 ± 0.001
ACAGGGGC	-0.13 ± 0.072
CCCCGAAC	-0.127 ± 0.0091
CAGTGGTA	-0.0733 ± 0.022
AAGGGGAA	-0.148 ± 0.05

Sequence	PBM E-score of 8-mer
GCACCCAC	0.297 ± 0.044
AATCTGGG	-0.0983 ± 0.06
ATAAGCGG	-0.112 ± 0.049
AACAGACT	-0.257 ± 0.0086
AGCTAGGA	-0.0186 ± 0.031
ACTAGGAT	-0.134 ± 0.0045
CCCGTACC	-0.0866 ± 0.12
CAGTTAGC	0.154 ± 0.037
AAACTGAG	-0.0926 ± 0.0015
AACGATCA	-0.0249 ± 0.028
GTGGCCGA	0.0278 ± 0.0034
AGCAGGAC	-0.0951 ± 0.093
GTGGATTA	-0.127 ± 0.0045
CACTCAGA	0.112 ± 0.1
GATTCTCC	-0.108 ± 0.02
TATGTGGA	-0.0333 ± 0.013
ATGACCGG	0.0018 ± 0.008
AGTATTTC	-0.24 ± 0.015
CCCCTGAC	-0.0441 ± 0.039
CCCTTCAA	-0.105 ± 0.1
AAACTCGT	0.0999 ± 0.0057
TAGGAGAA	-0.156 ± 0.045

From the supplement of paper PMC4166925
